# From PubChem BioAssay AID1452 (National Center for Advancing Translational Sciences (NCATS), 2008)
# Out of some 150,000 compounds screened, about 190 (0.13%) were called active. Inconclusive means that the source gave no clear call. Such entries were picked first, then a sample of the others. The call rests on the fitted dose curve; in most records, active means well fitted inhibition curve with a large enough effect; inconclusive means small, poorly fitted or top-dose-only effect; inactive means flat fitted curve, though single readings scatter. A potency beside an inconclusive call is a rough fit, not a confirmed value.
# Molecular target: Polyunsaturated fatty acid lipoxygenase ALOX12 (Homo sapiens) (UniProt P18054)
# Test: qHTS Assay for Inhibitors of 12-hLO (12-human lipoxygenase); further: nearly all actives have a fitted effect of over 55% in size
# Details: purified 12-hLO, xylenol orange hydroperoxide absorbance; series mostly up to 57.1 µM
# How it was run: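 150 nM 12hLO, 25 mM Hepes pH 7.0 + 0.01% Triton X-100; cpd preinc 15 min RT; 40 uM arachidonic acid, 30 min RT; Fe-XO 30 min; A573/A405 ratio as read-out.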
# Potency means the concentration at half of the fitted maximal effect; tags describe the fitted curve by direction and shape.
# Sequence of UniProt P18054 (P18054 whole entry, looked up): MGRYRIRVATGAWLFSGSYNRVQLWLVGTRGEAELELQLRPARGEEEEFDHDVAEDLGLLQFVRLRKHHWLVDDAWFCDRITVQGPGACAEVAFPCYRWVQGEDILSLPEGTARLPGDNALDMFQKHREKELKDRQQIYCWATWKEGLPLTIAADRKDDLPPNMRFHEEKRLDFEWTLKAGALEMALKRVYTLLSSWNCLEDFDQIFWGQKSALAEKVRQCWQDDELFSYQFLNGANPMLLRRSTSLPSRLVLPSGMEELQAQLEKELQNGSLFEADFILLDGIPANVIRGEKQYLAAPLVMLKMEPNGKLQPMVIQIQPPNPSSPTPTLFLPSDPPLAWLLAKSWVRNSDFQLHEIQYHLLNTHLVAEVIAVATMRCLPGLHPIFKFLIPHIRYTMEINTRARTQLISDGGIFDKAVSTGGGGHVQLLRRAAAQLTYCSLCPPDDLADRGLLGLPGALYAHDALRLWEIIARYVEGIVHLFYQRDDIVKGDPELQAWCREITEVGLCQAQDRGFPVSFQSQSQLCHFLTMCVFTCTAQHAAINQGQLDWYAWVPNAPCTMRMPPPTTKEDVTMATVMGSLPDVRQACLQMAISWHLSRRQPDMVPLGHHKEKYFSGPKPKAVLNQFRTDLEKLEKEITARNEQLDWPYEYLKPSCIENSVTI
row,SMILES,Potency
1,O=C(Nc1ccnc(-c2cccnc2)n1)c1cccc(Cl)c1Cl,inactive
2,COC(=O)c1ccccc1NC(=S)NC(=O)c1ccccc1,"inconclusive: 14.1 µM [inhibitor, partial curve]"
3,Cc1c(Cl)cccc1NC(=S)NCc1ccccc1Cl,active: 10 µM
4,S=c1[nH]nc(-c2ccco2)n1/N=C/C=C/c1ccccc1,inactive
5,CCC(C)c1ccc(NC(=S)NC2CCN(Cc3ccccc3)CC2)cc1 (stereo not drawn),"inconclusive: 39.8 µM [inhibitor, single point]"
6,CCOc1cc(CNc2ccc(N3CCOCC3)cc2)cc(Br)c1OCC,"inconclusive: 28.2 µM [inhibitor, single point]"
7,Cc1csc(=N)n1-c1ccc(Cl)cc1,"inconclusive: 15.8 µM [inhibitor, partial curve]"
8,CC(C)C(=O)Nc1cccc(NC(=S)NC(=O)C(c2ccccc2)c2ccccc2)c1,"inconclusive: 15.8 µM [inhibitor, partial curve]"
9,COc1cc(CNc2ccc(CNc3ncn[nH]3)cc2)ccc1OCc1ccccc1,inactive
10,O=C(NC(=S)NC1CCCCCC1)c1cncc(Br)c1,"inconclusive: 25.1 µM [inhibitor, single point]"
11,Cc1ccc(-c2cc(-c3n[nH]c(=S)o3)c3ccccc3n2)cc1,"inconclusive: 3.98 µM [inhibitor, partial curve]"
12,Cc1cccc(/C(N)=N/OC(=O)CCCN2C(=O)c3ccccc3C2=O)c1,inactive
13,S=C(NCc1ccc(Cl)cc1)NC1CCCCC1,"inconclusive: 28.2 µM [inhibitor, single point]"
14,Cc1ccc(S(=O)(=O)C/N=C(/NC(=S)N(c2ccccc2)c2ccccc2)c2ccccc2)cc1,"inconclusive: 25.1 µM [inhibitor, single point]"
15,COc1ccc(OC)c(-c2c3cc(O)c(=O)cc-3oc3cc(O)c(O)cc23)c1,"inconclusive: 15.8 µM [inhibitor, partial curve]"
16,N#Cc1c2c(c(N3CCN(c4ccccn4)CC3)n3c1nc1ccccc13)CCC2,"inconclusive: 31.6 µM [inhibitor, single point]"
17,Cn1c(=O)[nH]c(=O)c2c1nc(SCC(=O)O)n2CCc1ccccc1,"inconclusive: 31.6 µM [inhibitor, single point]"
18,C=Cc1c(C)/c2[n-]/c1=C\c1[n-]c(c(CC)c1C)/C=c1\[n-]c3c(c1C)C(=O)C(C(=O)[O-])C=3c1[n-]c(c(C)c1CCC(=O)[O-])\C=2.[Cu].[Na+].[Na+] (stereo not drawn),"inconclusive: 14.1 µM [inhibitor, partial curve]"
19,COc1ccc2c(c1)C(=O)c1ccccc1CO2,"inconclusive: 28.2 µM [inhibitor, single point]"
20,N[C@@H]1CCN(O)C1=O,inactive
21,Cc1ccc(NC(=S)NNC(=O)c2ccc(N3CCOCC3)c([N+](=O)[O-])c2)cc1Cl,"inconclusive: 25.1 µM [inhibitor, single point]"
22,O=C(NC(NC(=S)Nc1ccccc1Cl)C(Cl)(Cl)Cl)c1cccc(Cl)c1 (stereo not drawn),"inconclusive: 39.8 µM [inhibitor, single point]"
23,Cc1[nH]n(-c2ccccc2)c(=O)c1/C=N/Nc1nncc(-c2ccccc2)n1,"inconclusive: 39.8 µM [inhibitor, single point]"

row,SMILES,Potency
1,S=C(NCCC1=CCCCC1)Nc1ccccc1,"inconclusive: 39.8 µM [inhibitor, single point]"
2,COc1ccc(NC(=S)N(CCc2c(C)[nH]c3ccc(C)cc23)Cc2cccs2)cc1,"inconclusive: 15.8 µM [inhibitor, partial curve]"
3,CN1CCN(C2=C(Cl)C(=O)N(c3ccc(Cl)c(Cl)c3)C2=O)CC1,"inconclusive: 17.8 µM [inhibitor, partial curve]"
4,O=C(Cn1nnc(-c2ccccc2F)n1)Nc1cccc2ncccc12,inactive
5,CN(C)c1ccc(/C=N/N2C(=S)SC(C)(C)C2N(O)C(=O)Nc2ccc([N+](=O)[O-])cc2)cc1 (stereo not drawn),"inconclusive: 20 µM [inhibitor, partial curve]"
6,COC(=O)c1c(-c2ccncc2)csc1NC(=O)c1ccoc1C,inactive
7,Cc1ccc(C(=O)Nc2onc(C)c2C#N)cc1,inactive
8,O=C(NC(=S)NCC1COc2ccccc2O1)c1ccccc1 (stereo not drawn),active: 12.6 µM
9,CC[N+](CC)(CCNC(=O)C(=O)NCC[N+](CC)(CC)Cc1ccccc1Cl)Cc1ccccc1Cl,inactive
10,Cc1cccc(NC(=S)NNC(=O)c2csc3c2CCCC3)c1,"inconclusive: 35.5 µM [inhibitor, single point]"
11,COc1ccc(C(=O)Oc2cc(/C=N/NC(N)=S)ccc2OC)cc1,"inconclusive: 35.5 µM [inhibitor, single point]"
12,CCC(C)NC(=O)CSC1=Nc2ccccc2C2=NC(CC(=O)NCc3ccccc3)C(=O)N12 (stereo not drawn),inactive
13,CCOC(=O)c1c(C)oc2c1c(C(c1ccncc1)N1CCOCC1)c(O)c1ccccc12 (stereo not drawn),"inconclusive: 31.6 µM [inhibitor, single point]"
14,COC(=O)[C@@]1(Cc2ccc(F)cc2)[C@H]2c3cc(C(=O)N(C)C)n(Cc4cc(F)c(F)c(F)c4)c3C[C@H]2CN1C(=O)c1ccccc1,inactive
15,COc1ccccc1NC(=S)NCCC(c1ccccc1)c1ccccc1,"inconclusive: 39.8 µM [inhibitor, single point]"
16,Cn1cc(SCC(=O)Nc2ccc3c(c2)OCO3)c2ccccc21,"inconclusive: 8.91 µM [inhibitor, single point]"
17,COc1ccc(NS(=O)(=O)c2ccc(NC(=S)NC(=O)C(C)C)cc2)cc1,"inconclusive: 31.6 µM [inhibitor, single point]"
18,N=C(N)N1CCc2ccccc2C1,inactive
19,O=C(Nc1cccc(F)c1)N1CC2(CCN(S(=O)(=O)c3ccccc3)CC2)C1,inactive
20,COc1cc(CNc2cccc(F)c2)cc(Br)c1O,"inconclusive: 7.08 µM [inhibitor, partial curve]"
21,CCCc1cc(C(=O)Cc2nc3ccccc3s2)c(O)cc1O,"inconclusive: 17.8 µM [inhibitor, single point]"
22,Clc1cccc(N/N=C/c2ccc(N3CCOCC3)cc2)c1,"inconclusive: 2 µM [inhibitor, partial curve, poor fit]"
23,O=C1/C(=C/c2ccc(N3CCOCC3)o2)SC(=Nc2ccccc2)N1CCc1c[nH]c2ccccc12,"inconclusive: 25.1 µM [inhibitor, partial curve]"

row,SMILES,Potency
1,CN(C)/C=C/C(=O)c1ccc(Cl)cc1,"inconclusive: 15.8 µM [inhibitor, partial curve]"
2,C=CCN1C(=Nc2cccnc2)SCC1(O)c1ccc(C)cc1 (stereo not drawn),"inconclusive: 28.2 µM [inhibitor, partial curve]"
3,CCc1ccc(NS(=O)(=O)c2ccc3[nH]cc(C(=O)N(C)Cc4ccco4)c(=O)c3c2)cc1,"inconclusive: 22.4 µM [inhibitor, single point]"
4,COc1ccc(-c2n[nH]c(C)c2-c2ccc(Cl)cc2)c(O)c1,"inconclusive: 14.1 µM [inhibitor, partial curve]"
5,Cc1ccc(/C=C2\C(=O)Nc3ccccc32)o1,"inconclusive: 31.6 µM [inhibitor, single point]"
6,O=C1c2ccccc2C2=Nc3ccccc3SC(c3ccccc3F)C12 (stereo not drawn),"inconclusive: 20 µM [inhibitor, partial curve]"
7,COC(=O)c1cn(CC(=O)NC2CCCCC2)c2ccccc12,inactive
8,CCCc1ccc(Oc2cn[nH]c2-c2ccc(O)cc2O)cc1,"inconclusive: 17.8 µM [inhibitor, partial curve]"
9,COc1ccc(C(=O)/C=C/c2cc(OC)c(O)c(OC)c2)c(F)c1,"inconclusive: 11.2 µM [inhibitor, partial curve]"
10,CCOC(=O)c1sc(=S)n(-c2cc(OC)ccc2OC)c1N,inactive
11,CN(C)c1nccc(N(Cc2ccccc2)Cc2ccccc2)c1C#N,"inconclusive: 7.08 µM [inhibitor, partial curve]"
12,Cc1ccc(N2C(=O)c3ccccc3NC2C(C)Cc2ccc3c(c2)OCO3)cc1 (stereo not drawn),"inconclusive: 11.2 µM [inhibitor, partial curve]"
13,CCc1nnc(NS(=O)(=O)c2ccc(NC(=S)NC(=O)/C=C/c3ccc(C(C)C)cc3)cc2)s1,active: 15.8 µM
14,O=C1CC(c2ccco2)CC(O)=C1C=Nc1cc(Cl)ccc1O (stereo not drawn),"inconclusive: 25.1 µM [inhibitor, partial curve]"
15,Cc1cccc(NC(=S)NNC(=O)c2csc(C(C)C)c2)c1,"inconclusive: 11.2 µM [inhibitor, partial curve]"
16,CCOC(=O)C1C(=O)CC(=O)CC1CC(C)SCC (stereo not drawn),"inconclusive: 25.1 µM [inhibitor, single point]"
17,CCOC(=O)C1CCCN(C(=O)c2cc(-c3ccc(C)cc3)on2)C1 (stereo not drawn),inactive
18,Cc1cc(NS(=O)(=O)c2ccc(NC(=S)NC(=O)c3ccc(F)cc3)cc2)no1,"inconclusive: 31.6 µM [inhibitor, single point]"
19,Cc1cc(C(=O)OCC(=O)c2ccc(Br)s2)no1,"inconclusive: 15.8 µM [inhibitor, partial curve]"
20,COc1ccc(CCN2C(=O)CC(Nc3ccc(N4CCOCC4)cc3)C2=O)cc1OC (stereo not drawn),"inconclusive: 17.8 µM [inhibitor, partial curve]"
21,COc1cc(/C=C(\C#N)C(=O)c2ccc(O)c(O)c2)cc(I)c1O,"inconclusive: 12.6 µM [inhibitor, partial curve]"
22,CC(=O)Oc1cc(OC(C)=O)c2c(=O)cc(-c3ccc(OC(C)=O)c(OC(C)=O)c3)oc2c1,"inconclusive: 31.6 µM [inhibitor, partial curve, poor fit]"
